Over roughly 33,000 sequences, “E-score (-0.5 to 0.5)” has its median near -0.035; the highest 2% begin near 0.35. The list shows a part of the results.
What follows are sequences tested against T1, Pdr3 (UniProt P33200) (assay: PBM E-score (8-mer binding enrichment) (E-score (-0.5 to 0.5)); higher = stronger / more preferred TF binding; most listed sequences are background and not binding sites). Settings: protein concentration: 200 nM; construct: GST-full length.
T1 sequence: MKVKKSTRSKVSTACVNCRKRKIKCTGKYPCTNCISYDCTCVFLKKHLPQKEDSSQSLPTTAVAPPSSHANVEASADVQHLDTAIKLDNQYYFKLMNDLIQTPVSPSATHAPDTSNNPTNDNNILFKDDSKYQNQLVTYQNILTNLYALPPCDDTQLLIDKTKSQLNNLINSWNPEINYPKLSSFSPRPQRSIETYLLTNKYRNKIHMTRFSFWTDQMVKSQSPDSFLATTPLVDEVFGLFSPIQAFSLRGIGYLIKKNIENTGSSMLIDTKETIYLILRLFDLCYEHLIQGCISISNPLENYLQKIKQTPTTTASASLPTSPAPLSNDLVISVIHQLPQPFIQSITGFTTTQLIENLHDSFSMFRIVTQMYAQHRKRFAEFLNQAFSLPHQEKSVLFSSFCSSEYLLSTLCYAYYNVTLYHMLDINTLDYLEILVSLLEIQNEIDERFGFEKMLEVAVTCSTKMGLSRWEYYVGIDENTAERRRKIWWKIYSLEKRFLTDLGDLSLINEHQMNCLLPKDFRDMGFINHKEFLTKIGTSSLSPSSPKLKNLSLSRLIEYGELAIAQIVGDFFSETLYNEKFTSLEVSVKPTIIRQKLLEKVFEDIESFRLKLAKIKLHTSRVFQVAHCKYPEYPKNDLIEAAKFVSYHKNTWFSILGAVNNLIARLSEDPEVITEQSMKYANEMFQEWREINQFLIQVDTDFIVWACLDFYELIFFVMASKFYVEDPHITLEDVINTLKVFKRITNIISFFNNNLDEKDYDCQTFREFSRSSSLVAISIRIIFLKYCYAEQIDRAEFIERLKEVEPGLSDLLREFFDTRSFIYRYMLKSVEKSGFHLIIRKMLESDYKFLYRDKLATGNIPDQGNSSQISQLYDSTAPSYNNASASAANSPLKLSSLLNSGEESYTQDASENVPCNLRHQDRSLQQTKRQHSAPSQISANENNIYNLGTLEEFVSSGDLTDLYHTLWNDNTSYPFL
Outline: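 Yeast transcription factors carrying a GST tag, as full-length proteins or DNA-binding domains, were produced by PURExpress in vitro transcription/translation. About 100-200 nM protein was applied to universal all-10-mer Agilent arrays, double-stranded by primer extension on fresh or once-stripped slides. Bound protein was detected with fluorescent anti-GST, and scans were normalised with masliner. The Universal PBM Analysis Suite gave each ungapped eight-base word, pooled with its reverse complement, an E-score, a modified Wilcoxon-Mann-Whitney statistic.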

Row | Sequence | PBM E-score
1 | TCGCATCA | 0.169
2 | CAGTAGTA | -0.146
3 | AAAACCGT | -0.0753
4 | AATCGGAA | 0.445
5 | AGCTTCCT | -0.0692
6 | GGGGAGGA | 0.0182
7 | CTTCTACA | -0.161
8 | CGCCAACA | 0.0251
9 | CTTGTAAA | -0.127
10 | GCAGGGAA | 0.0453
11 | AGGACCCG | 0.17
12 | ATTTCGTG | 0.0103
13 | GAACCTTA | 0.237
14 | AGTAATGG | -0.0776
15 | ATGGTTGG | -0.0179
16 | GTCCAAAC | -0.21
17 | AACAGAGG | -0.128
18 | ACTCACAC | 0.143
19 | ATAAAGCG | -0.096
20 | AGTTCGCG | 0.148
21 | AAGCAACA | -0.21
22 | CAGGGTGC | -0.142
23 | CCGTCCGC | 0.261
24 | GATGAGAA | -0.131
25 | GTACCATA | -0.164

Row | Sequence | PBM E-score
26 | AGAGGTTG | -0.112
27 | AAATAGAC | 0.0586
28 | CGTACGTC | -0.134
29 | CCCCGAGG | 0.165
30 | CGGTTAGA | 0.0958
31 | AACGCCCG | 0.231
32 | CATGAAGC | 0.058
33 | ACATTGCA | -0.118
34 | ACGTTCTG | 0.0019
35 | ATCCGCAT | 0.267
36 | CTAGAACC | -0.237
37 | GGGCCGAA | 0.121
38 | AAACTTGT | -0.00572
39 | CGATCTCA | -0.00747
40 | GGCTCCAC | -0.235
41 | GCGAGGAA | 0.253
42 | TATGTTGA | -0.0621
43 | CCAGGACA | 0.0484
44 | GACGTCCA | 0.0284
45 | GATGGTCC | 0.0792
46 | ACGCAATA | 0.0846
47 | GCTCGAAC | -0.0851
48 | AGTCAAGG | -0.135
49 | ACACTTAC | 0.0449
50 | AAAAAGAT | -0.0609

Row | Sequence | PBM E-score
51 | AGGAAGTA | 0.0507
52 | CTCCCCGC | 0.34
53 | AACATGCG | -0.0894
54 | CCTAACGA | -0.163
55 | GTTCCGTA | 0.471
56 | ACTAGAAG | -0.111
57 | AGGATGCG | -0.0929
58 | CGGCTAAA | 0.183
59 | GACGCGTC | -0.0516
60 | AAACACTA | -0.158
61 | GTATACCA | -0.00724
62 | AAAAGGGA | -0.114
63 | ACGCATCA | -0.129
64 | CAGTTGAA | -0.151
65 | ACTGTAAC | -0.167
66 | AAGTAGCG | -0.212
67 | CGGTCAAG | 0.198
68 | GGCCCCGA | 0.181
69 | GAACCAGA | -0.134
70 | AGATAGAG | 0.0305
71 | CAAGTTCC | 0.243
72 | TGTTTGAA | -0.218
73 | AGAATTCG | -0.0278
74 | GGGGGTCA | -0.225
75 | ACGTGGTG | -0.0844

Row | Sequence | PBM E-score
76 | AGTTTTAC | -0.00174
77 | CTTGACCA | -0.251
78 | CGCGTTGC | 0.205
79 | ATGGCACC | -0.0273
80 | CGGGTGCC | 0.191
81 | ACGTGCTA | -0.238
82 | CACTGCGA | -0.0545
83 | CTTCTCAA | -0.223
84 | GTAATGAC | -0.0972
85 | GTTTTACA | -0.181
86 | CTCTATTC | 0.0887
87 | ATCCACGC | -0.296
88 | GCATCGGC | 0.106
89 | GGCGGAGA | 0.288
90 | GTCTAAGA | 0.0409
91 | GTAGGTTA | -0.0402
92 | AGGAGACA | 0.00111
93 | CTGGGTTC | 0.0387
94 | GTAAGAGA | -0.0427
95 | ACCTTTAT | -0.226
96 | GCGTACCC | -0.0492
97 | CAATTCGC | 0.189
98 | CTCTAGCC | -0.195
99 | ATCCAGGC | -0.0165
100 | GGAAGCCC | 0.227

Row | Sequence | PBM E-score
101 | CGCGTTGA | 0.0123
102 | CCGAAGAC | 0.192
103 | CGATATAC | 0.0617
104 | GGTCCCTA | -0.0242
105 | ACCGGAGA | 0.353
106 | GCCCTCAA | -0.225
107 | CTGTCGTA | -0.0699
108 | CTCGCCGC | 0.161
109 | CGTAGAGA | -0.182
110 | AACCCGAG | 0.238
111 | TCATGTAA | -0.182
112 | AGCGGCCC | 0.0341
113 | AAATGCGT | -0.0464
114 | GAGTCTGA | -0.152
115 | ATTTGTAC | -0.138
116 | CATAGACA | -0.0755
117 | CAAGCCTG | -0.257
118 | GCGTTCAC | -0.114
119 | ATGTTGCC | -0.0328
120 | ACTACAGT | -0.24
121 | AAGCTACA | -0.264
122 | ATGCTTAA | -0.0561
123 | CATCACGC | -0.0621
124 | AAGATTAA | 0.0157
125 | GAAACCTA | -0.0777

Row | Sequence | PBM E-score
126 | GACCCTTA | -0.212
127 | CATTCCTC | 0.0812
128 | ATTGGGCG | -0.011
129 | AATCACGC | 0.0492
130 | CTATTTAC | 0.0464
131 | ATATATTG | 0.0274
132 | GAGCTGAA | -0.0952
133 | TATTGCGA | 0.0578
134 | CTGGTATA | -0.175
135 | TCCCGCCA | 0.28
136 | GGCTTATA | -0.14
137 | ACCGAGTA | 0.0879
138 | ATAGAGGG | -0.0467
139 | ACTTCTCC | 0.126
140 | ATACCTAT | -0.00049
141 | CGTCTCAC | -0.132
142 | AATGCAAG | -0.0683
143 | CAATCCGC | 0.265
144 | CGAGAGAC | -0.176
145 | GCGAGTGA | -0.0429
146 | AACATCAA | 0.0672
147 | ACTAAGAT | -0.0196
148 | TGGTAAAA | -0.114
149 | CGTAGGTC | -0.26
150 | AACTACCA | -0.19

Row | Sequence | PBM E-score
151 | GGTCGTCA | -0.132
152 | CACCACGG | -0.0288
153 | AAGCTTAA | 0.0158
154 | GCTCTGCA | -0.161
155 | CTAAACCC | -0.0585
156 | ATTTTGGG | -0.134
157 | CAAACTTA | -0.00098
158 | CACATACA | -0.207
159 | CACCCAGG | -0.11
160 | CCACGGAG | 0.429
161 | AAGCTAAG | -0.265
162 | TCCAAGAA | -0.108
163 | TTCTCAAA | -0.115
164 | CCAGTTTC | 0.0244
165 | GTTGTTCA | -0.104
166 | TAGTACTA | -0.135
167 | ACCGCCGG | 0.288
168 | GAATTAAA | 0.0131
169 | CTACGTTA | -0.0972
170 | ATTAGGTC | 0.0884
171 | AGCACTTA | -0.102
172 | CTAGATCC | -0.0466
173 | CCTAAACC | -0.2
174 | GCCTGTGA | -0.242
175 | GTCGTCAC | -0.197

Row | Sequence | PBM E-score
176 | ACGGTGAA | -0.0181
177 | ATTATTAG | -0.0723
178 | GGTCTCAA | -0.179
179 | AGCATGCT | -0.108
180 | CGACACAG | -0.0293
181 | CCCAACAA | -0.0732
182 | GCGTCCAA | -0.127
183 | GTGATAAA | -0.0503
184 | TGGCGAAA | -0.0244
185 | TAGCACAA | -0.0987
186 | CTTCAATA | -0.0336
187 | CAGGGAAG | -0.192
188 | CGGAGAAC | 0.272
189 | TACGCTCA | -0.261
190 | CTGTGTTC | 0.0921
191 | AACGCATA | -0.112
192 | CAATACCC | 0.0782
193 | TCCGAAGA | 0.339
194 | CGATGGCA | -0.0105
195 | CGCAATAG | -0.0261
196 | ACCGACGG | 0.229
197 | AACAGTGA | -0.0881
198 | GTACAGTA | -0.113
199 | AGTCACAG | -0.199
200 | CCCCCGCA | -0.0494

Row | Sequence | PBM E-score
201 | CAGAAAGG | -0.151
202 | TTACGCAA | -0.0756
203 | CGAGCGTA | -0.00809
204 | CATAGCTC | -0.0914
205 | ACAGTGGA | -0.0482
206 | CAGGGTCC | -0.155
207 | CAGATTAC | -0.0927
208 | ACGATGTA | -0.111
209 | CGATGATA | 0.154
210 | GAATTTGA | 0.0448
211 | TAAGACTA | -0.1
212 | GAGAATCC | 0.225
213 | CTTAATAC | -0.134
214 | ACCTCTCC | -0.0628
215 | AAAGATCG | -0.0324
216 | CGTCTCAG | -0.204
217 | GAAGGGAA | -0.0562
218 | AACTCGAG | 0.0466
219 | AGGAACGG | 0.228

From the supplement of paper PMC3334620
